Assay results reported in patent US6255286A, “Depsipeptides and drugs containing the same as the active ingredient” (Nisshin Flour Milling Co., Ltd., priority 1996, dated 2001).
At least one peptide structure holds a part that was inferred or is arguable (an end, a ring closure or a residue). Where a SMILES comes first, the peptide text is derived from it. [ ]: non-standard residue; d: D form. The star is where a group is joined. ξ: configuration not given here. Myristoyl(3ξ-yloxy)GlnLeuOH = CCCCCCCCCCCC(CC(=O)N[C@@H](CCC(N)=O)C(=O)N[C@@H](CC(C)C)C(=O)O)O*; d(tBuAla) = CC(C)(C)C[C@@H](N)C(=O)O; Fmoc = O=C(OCC1c2ccccc2-c2ccccc21)*; X2 = CCCCCCCCCCCC(CC(=O)O)O*; Boc = CC(C)(C)OC(=O)*

System: production of apolipoprotein E in Hep G2 cells
Test: Promotion of apolipoprotein E production in Hep G2 cells, assayed by enzyme immunoassay
Type: cell-based, human
Settings: methanol control defined as 100

SMILES	Relative amount of apolipoprotein E (%) (Conc. 5 μM)	Relative amount of apolipoprotein E (%) (Conc. 1 μM)	other results
CCCCCCCCCCCC(CC(=O)O)OC(=O)[C@@H](NC(=O)[C@@H](CC(C)C)NC(=O)[C@H](CC(=O)O)NC(=O)OC(C)(C)C)[C@@H](C)CC (stereo partly shown) [Compound 5]			Relative amount of apolipoprotein E (%) (Conc. 10 μM): 168%
CCCCCCCCCCCC(CC(=O)O)OC(=O)[C@@H](NC(=O)[C@@H](CC(C)C)NC(=O)[C@@H](N)CC(=O)O)[C@@H](C)CC (stereo partly shown) [Compound 7]			Relative amount of apolipoprotein E (%) (Conc. 10 μM): 168%
CCCCCCCCCCCC(CC(=O)O)OC(=O)[C@@H](NC(=O)[C@@H](CC(C)C)NC(=O)[C@H](CC(=O)O)NC(=O)[C@@H](NC(=O)OC(C)(C)C)C(C)C)[C@@H](C)CC (stereo partly drawn) [Compound 9] (Boc-VD[dL]I-X2)	306		
CCCCCCCCCCCC(CC(=O)O)OC(=O)[C@@H](NC(=O)[C@@H](CC(C)C)NC(=O)[C@H](CC(=O)O)NC(=O)[C@@H](N)C(C)C)[C@@H](C)CC (stereo partly drawn) [Compound 11] (H-VD[dL]I-X2)	364		
CCCCCCCCCCCC(CC(=O)O)OC(=O)[C@@H](NC(=O)[C@@H](CC(C)C)NC(=O)[C@H](CC(=O)O)NC(=O)[C@@H](NC(=O)[C@@H](CC(C)C)NC(=O)OC(C)(C)C)C(C)C)[C@@H](C)CC (stereo partly drawn) [Compound 13] (Boc-[dL]VD[dL]I-X2)	458		
CCCCCCCCCCCC(CC(=O)O)OC(=O)[C@@H](NC(=O)[C@@H](CC(C)C)NC(=O)[C@H](CC(=O)O)NC(=O)[C@@H](NC(=O)[C@H](N)CC(C)C)C(C)C)[C@@H](C)CC (stereo partly drawn) [Compound 15] (H-[dL]VD[dL]I-X2)	390		
CCCCCCCCCCCC(CC(=O)N[C@@H](CCC(N)=O)C(=O)N[C@@H](CC(C)C)C(=O)O)OC(=O)[C@@H](NC(=O)[C@@H]1CCCN1C(=O)[C@H](CC(=O)O)NC(=O)OCC1c2ccccc2-c2ccccc21)[C@@H](C)CC (stereo partly shown) [Compound 41]		192	
CCCCCCCCCCCC(CC(=O)N[C@@H](CCC(N)=O)C(=O)N[C@@H](CC(C)C)C(=O)O)OC(=O)[C@@H](NC(=O)[C@@H]1CCCN1C(=O)[C@H](CC(=O)O)NC(=O)[C@@H](NC(=O)OCC1c2ccccc2-c2ccccc21)C(C)C)[C@@H](C)CC (stereo partly shown) [Compound 44] (Fmoc-VDPI-{Myristoyl(3ξ-yloxy)GlnLeuOH})		194	
CCCCCCCCCCCC(CC(=O)N[C@@H](CCC(N)=O)C(=O)N[C@@H](CC(C)C)C(=O)O)OC(=O)[C@@H](NC(=O)[C@@H](CC(C)(C)C)NC(=O)[C@H](CC(=O)O)NC(=O)OCC1c2ccccc2-c2ccccc21)[C@@H](C)CC (stereo partly shown) [Compound 46]		130	
CCCCCCCCCCCC(CC(=O)N[C@@H](CCC(N)=O)C(=O)N[C@@H](CC(C)C)C(=O)O)OC(=O)[C@@H](NC(=O)[C@@H](CC(C)(C)C)NC(=O)[C@H](CC(=O)O)NC(=O)[C@@H](NC(=O)OCC1c2ccccc2-c2ccccc21)C(C)C)[C@@H](C)CC (stereo partly shown) [Compound 49] (Fmoc-VD[d(tBuAla)]I-{Myristoyl(3ξ-yloxy)GlnLeuOH})		277	
CCCCCCCCCCCC(CC(=O)N[C@@H](CCC(N)=O)C(=O)N[C@@H](CC(C)C)C(=O)O)OC(=O)[C@@H](NC(=O)[C@H](Cc1ccc(O)cc1)NC(=O)[C@H](CC(=O)O)NC(=O)OCC1c2ccccc2-c2ccccc21)[C@@H](C)CC (stereo partly shown) [Compound 56]		185	
CCCCCCCCCCCC(CC(=O)N[C@@H](CCC(N)=O)C(=O)N[C@@H](CC(C)C)C(=O)O)OC(=O)[C@@H](NC(=O)[C@H](Cc1ccc(O)cc1)NC(=O)[C@H](CC(=O)O)NC(=O)[C@@H](NC(=O)OCC1c2ccccc2-c2ccccc21)C(C)C)[C@@H](C)CC (stereo partly shown) [Compound 59] (Fmoc-VDYI-{Myristoyl(3ξ-yloxy)GlnLeuOH})		135	
CCCCCCCCCCCC(CC(=O)N[C@@H](CCC(N)=O)C(=O)N[C@@H](CC(C)C)C(=O)O)OC(=O)[C@@H](NC(=O)[C@H]1CCCN1C(=O)[C@H](CC(=O)O)NC(=O)OCC1c2ccccc2-c2ccccc21)[C@@H](C)CC (stereo partly shown) [Compound 61]		144	
